Numbering of substitutions follows the chain as printed. Results are given in words; binding and its absence hold for the method and conditions named. Binding seen in cells or lysates may run through a third protein. Some entries that bind do so weakly or less than the wild type. For some assays here: Sequences can lack the tags named with a protein.
Key:
[1] = biological target: T1, GST-Bag-1L fusion protein, wild type (human) (UniProt Q99933); assay: pull-down; GST-Bag-1L fusion proteins (wild type and BAG domain point mutants) with lysates from LNCaP cells; only the target purified
T1 sequence: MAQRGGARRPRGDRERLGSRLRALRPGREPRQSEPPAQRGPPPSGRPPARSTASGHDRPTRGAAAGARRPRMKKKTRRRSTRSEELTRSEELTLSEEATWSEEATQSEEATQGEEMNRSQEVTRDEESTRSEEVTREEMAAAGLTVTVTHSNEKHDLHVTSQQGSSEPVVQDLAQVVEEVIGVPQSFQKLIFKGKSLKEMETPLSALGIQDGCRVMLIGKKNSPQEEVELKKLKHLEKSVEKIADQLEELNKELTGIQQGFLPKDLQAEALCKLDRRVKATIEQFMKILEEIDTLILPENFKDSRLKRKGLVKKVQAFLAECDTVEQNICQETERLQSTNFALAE

Sequences of proteins named here, by UniProt entry; tags and fusion partners are left off.
UniProt P0DMV8: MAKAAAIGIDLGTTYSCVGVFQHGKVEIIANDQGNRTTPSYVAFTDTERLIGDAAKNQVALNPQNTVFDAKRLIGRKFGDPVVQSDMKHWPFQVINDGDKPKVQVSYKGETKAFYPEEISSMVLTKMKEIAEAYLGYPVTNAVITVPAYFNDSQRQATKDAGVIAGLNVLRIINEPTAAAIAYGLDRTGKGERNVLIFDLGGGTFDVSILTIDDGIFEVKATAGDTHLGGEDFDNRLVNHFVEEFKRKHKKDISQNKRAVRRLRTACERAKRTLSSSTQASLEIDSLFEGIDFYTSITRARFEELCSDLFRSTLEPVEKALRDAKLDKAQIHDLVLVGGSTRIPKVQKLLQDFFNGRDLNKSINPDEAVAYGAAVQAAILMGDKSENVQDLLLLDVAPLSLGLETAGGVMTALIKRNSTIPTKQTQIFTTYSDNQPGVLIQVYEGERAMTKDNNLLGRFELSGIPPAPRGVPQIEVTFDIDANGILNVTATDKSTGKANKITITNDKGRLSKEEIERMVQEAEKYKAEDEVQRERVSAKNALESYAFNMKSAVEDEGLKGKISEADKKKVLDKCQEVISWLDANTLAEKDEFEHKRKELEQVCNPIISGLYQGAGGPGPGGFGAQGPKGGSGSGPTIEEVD
UniProt P10275: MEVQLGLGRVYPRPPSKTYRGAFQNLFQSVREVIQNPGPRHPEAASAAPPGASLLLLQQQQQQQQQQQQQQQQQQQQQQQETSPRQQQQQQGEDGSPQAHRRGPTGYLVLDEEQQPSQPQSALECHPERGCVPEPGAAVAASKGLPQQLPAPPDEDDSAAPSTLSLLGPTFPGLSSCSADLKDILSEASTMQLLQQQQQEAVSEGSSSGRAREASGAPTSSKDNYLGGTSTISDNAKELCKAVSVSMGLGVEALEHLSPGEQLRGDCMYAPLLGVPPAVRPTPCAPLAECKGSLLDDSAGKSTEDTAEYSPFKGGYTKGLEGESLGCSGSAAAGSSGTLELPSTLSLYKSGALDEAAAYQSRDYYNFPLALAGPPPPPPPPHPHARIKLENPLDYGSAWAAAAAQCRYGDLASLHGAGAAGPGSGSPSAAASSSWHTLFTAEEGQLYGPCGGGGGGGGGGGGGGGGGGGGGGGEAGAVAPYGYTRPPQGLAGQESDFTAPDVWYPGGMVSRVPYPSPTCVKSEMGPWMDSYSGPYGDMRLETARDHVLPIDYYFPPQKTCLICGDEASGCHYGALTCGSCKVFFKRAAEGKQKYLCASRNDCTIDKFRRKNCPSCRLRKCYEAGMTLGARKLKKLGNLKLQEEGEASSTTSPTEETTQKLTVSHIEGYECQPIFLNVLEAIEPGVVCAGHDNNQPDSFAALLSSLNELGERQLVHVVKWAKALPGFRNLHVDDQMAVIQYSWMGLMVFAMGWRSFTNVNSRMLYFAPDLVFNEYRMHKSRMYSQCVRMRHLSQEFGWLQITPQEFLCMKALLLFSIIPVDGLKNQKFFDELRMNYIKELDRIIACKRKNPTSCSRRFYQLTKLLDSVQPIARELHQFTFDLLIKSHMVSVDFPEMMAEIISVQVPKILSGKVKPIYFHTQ

[2] = biological target: T2, GST-Bag-1L fusion protein, K231/232/279A triple mutant (human) (UniProt Q99933); assay: as above
T2 sequence: T1 sequence with K231A, K232A, K279A

[3] = biological target: T3, FLAG-, HA-tagged wild-type Bag-1L (human) (UniProt Q99933); assay: co-IP; LNCaP cells stably overexpressing FLAG-, HA-tagged Bag-1L WT or CMut; IP with anti-HA-tag antibody, blots for AR and Hsp70
T3 sequence: T1 sequence

[4] = biological target: T4, FLAG-, HA-tagged BAG domain mutant Bag-1L (K231/232/279A) (human) (UniProt Q99933); assay: as above
T4 sequence: T1 sequence with K231A, K232A, K279A

[5] = biological target: T5, Bag-1L, endogenous in LNCaP cells (human (endogenous in LNCaP)) (UniProt Q99933); assay: condition: only cells treated with 5 μM Thio-2 for 16 hr; co-IP; endogenous proteins in LNCaP cells treated with 5 μM Thio-2 for 16 hr; IP with a Bag-1L-specific antibody, blot for AR
T5 sequence: T1 sequence

[6] = biological target: T5, Bag-1L, endogenous in LNCaP cells (human (endogenous in LNCaP)); assay: co-IP; endogenous proteins in LNCaP cells, without Thio-2; IP with a Bag-1L-specific antibody, blot for AR; IgG IP as negative control

binding [1] | binding [2] | binding [3] | binding [4] | binding [5] | binding [6] | Substance
binds | binds | binds | binds | – | – | Hsp70 (HSPA1), endogenous in LNCaP cells (from UniProt P0DMV8 1-641)
binds | – | binds | – | no binding | binds | androgen receptor, endogenous in LNCaP cells (from UniProt P10275 1-920)
